{
  "source": "paper PMC9911399",
  "about": "“Two distinct binding modes provide the RNA-binding protein RbFox with extraordinary sequence specificity”",
  "binders": {"B1": {"name": "UGGUGGA (DNA:RNA)", "RNA": "GGGAGACCGGAAUUCAGAUUGUCCUGGUGGAUUAAAUCCCGUCGUAGCCACCA", "DNA 1": "CAATCTGAATTCCGGTCTCCC", "DNA 2": "TGGTGGCTACGACGGGATT"}, "B2": {"name": "UAACGGC (DNA:RNA)", "RNA": "B1 RNA with G26A, G27A, U28C, A31C", "DNA 1": "CAATCTGAATTCCGGTCTCCC", "DNA 2": "TGGTGGCTACGACGGGATT"}, "B3": {"name": "GGUAGGU (DNA:RNA)", "RNA": "B1 RNA with U25G, G27U, U28A, A31U", "DNA 1": "CAATCTGAATTCCGGTCTCCC", "DNA 2": "TGGTGGCTACGACGGGATT"}, "B4": {"name": "CUGCAAC (DNA:RNA)", "RNA": "B1 RNA with U25C, G26U, U28C, G29A, G30A, A31C", "DNA 1": "CAATCTGAATTCCGGTCTCCC", "DNA 2": "TGGTGGCTACGACGGGATT"}, "B5": {"name": "AUAUAUU (DNA:RNA)", "RNA": "B1 RNA with U25A, G26U, G27A, G29A, G30U, A31U", "DNA 1": "CAATCTGAATTCCGGTCTCCC", "DNA 2": "TGGTGGCTACGACGGGATT"}, "B6": {"name": "UCCGCCG (DNA:RNA)", "RNA": "B1 RNA with G26C, G27C, U28G, G29C, G30C, A31G", "DNA 1": "CAATCTGAATTCCGGTCTCCC", "DNA 2": "TGGTGGCTACGACGGGATT"}, "B7": {"name": "UUAUCUU (DNA:RNA)", "RNA": "B1 RNA with G26U, G27A, G29C, G30U, A31U", "DNA 1": "CAATCTGAATTCCGGTCTCCC", "DNA 2": "TGGTGGCTACGACGGGATT"}, "B8": {"name": "GCAUCGG (DNA:RNA)", "RNA": "B1 RNA with U25G, G26C, G27A, G29C, A31G", "DNA 1": "CAATCTGAATTCCGGTCTCCC", "DNA 2": "TGGTGGCTACGACGGGATT"}, "B9": {"name": "AUGAGAU (DNA:RNA)", "RNA": "B1 RNA with U25A, G26U, U28A, G30A, A31U", "DNA 1": "CAATCTGAATTCCGGTCTCCC", "DNA 2": "TGGTGGCTACGACGGGATT"}, "B10": {"name": "CCUCAUU (DNA:RNA)", "RNA": "GGGAGACCGGAAUUCAGAUUGUCCCCUCAUUUUAAAUCCCGUCGUAGCCACCA", "DNA 1": "CAATCTGAATTCCGGTCTCCC", "DNA 2": "TGGTGGCTACGACGGGATT"}, "B11": {"name": "ACUUGCA (DNA:RNA)", "RNA": "B1 RNA with U25A, G26C, G27U, G30C", "DNA 1": "CAATCTGAATTCCGGTCTCCC", "DNA 2": "TGGTGGCTACGACGGGATT"}, "B12": {"name": "GUAAGAG (DNA:RNA)", "RNA": "B1 RNA with U25G, G26U, G27A, U28A, G30A, A31G", "DNA 1": "CAATCTGAATTCCGGTCTCCC", "DNA 2": "TGGTGGCTACGACGGGATT"}, "B13": {"name": "UUGAGCC (DNA:RNA)", "RNA": "B1 RNA with G26U, U28A, G30C, A31C", "DNA 1": "CAATCTGAATTCCGGTCTCCC", "DNA 2": "TGGTGGCTACGACGGGATT"}, "B14": {"name": "GCUCCUC (DNA:RNA)", "RNA": "B10 RNA with C25G, A29C, U31C", "DNA 1": "CAATCTGAATTCCGGTCTCCC", "DNA 2": "TGGTGGCTACGACGGGATT"}, "B15": {"name": "CUUAACG (DNA:RNA)", "RNA": "B10 RNA with C26U, C28A, U30C, U31G", "DNA 1": "CAATCTGAATTCCGGTCTCCC", "DNA 2": "TGGTGGCTACGACGGGATT"}, "B16": {"name": "GUUACAU (DNA:RNA)", "RNA": "B10 RNA with C25G, C26U, C28A, A29C, U30A", "DNA 1": "CAATCTGAATTCCGGTCTCCC", "DNA 2": "TGGTGGCTACGACGGGATT"}, "B17": {"name": "GGCUGGA (DNA:RNA)", "RNA": "B1 RNA with U25G, G27C", "DNA 1": "CAATCTGAATTCCGGTCTCCC", "DNA 2": "TGGTGGCTACGACGGGATT"}, "B18": {"name": "CGACUUG (DNA:RNA)", "RNA": "B10 RNA with C26G, U27A, A29U, U31G", "DNA 1": "CAATCTGAATTCCGGTCTCCC", "DNA 2": "TGGTGGCTACGACGGGATT"}, "B19": {"name": "AUCUGCA (DNA:RNA)", "RNA": "B1 RNA with U25A, G26U, G27C, G30C", "DNA 1": "CAATCTGAATTCCGGTCTCCC", "DNA 2": "TGGTGGCTACGACGGGATT"}, "B20": {"name": "GGUAUAG (DNA:RNA)", "RNA": "B10 RNA with C25G, C26G, C28A, A29U, U30A, U31G", "DNA 1": "CAATCTGAATTCCGGTCTCCC", "DNA 2": "TGGTGGCTACGACGGGATT"}, "B21": {"name": "GCCAGAC (DNA:RNA)", "RNA": "B10 RNA with C25G, U27C, C28A, A29G, U30A, U31C", "DNA 1": "CAATCTGAATTCCGGTCTCCC", "DNA 2": "TGGTGGCTACGACGGGATT"}, "B22": {"name": "CUUAAUU (DNA:RNA)", "RNA": "B10 RNA with C26U, C28A", "DNA 1": "CAATCTGAATTCCGGTCTCCC", "DNA 2": "TGGTGGCTACGACGGGATT"}, "B23": {"name": "UUAUAUC (DNA:RNA)", "RNA": "B10 RNA with C25U, C26U, U27A, C28U, U31C", "DNA 1": "CAATCTGAATTCCGGTCTCCC", "DNA 2": "TGGTGGCTACGACGGGATT"}, "B24": {"name": "CGAAUCG (DNA:RNA)", "RNA": "B10 RNA with C26G, U27A, C28A, A29U, U30C, U31G", "DNA 1": "CAATCTGAATTCCGGTCTCCC", "DNA 2": "TGGTGGCTACGACGGGATT"}, "B25": {"name": "UGUGAGA (DNA:RNA)", "RNA": "B1 RNA with G27U, U28G, G29A", "DNA 1": "CAATCTGAATTCCGGTCTCCC", "DNA 2": "TGGTGGCTACGACGGGATT"}, "B26": {"name": "CGAAUGG (DNA:RNA)", "RNA": "B1 RNA with U25C, G27A, U28A, G29U, A31G", "DNA 1": "CAATCTGAATTCCGGTCTCCC", "DNA 2": "TGGTGGCTACGACGGGATT"}, "B27": {"name": "UCUCUUA (DNA:RNA)", "RNA": "B10 RNA with C25U, A29U, U31A", "DNA 1": "CAATCTGAATTCCGGTCTCCC", "DNA 2": "TGGTGGCTACGACGGGATT"}, "B28": {"name": "UGCGUUG (DNA:RNA)", "RNA": "B1 RNA with G27C, U28G, G29U, G30U, A31G", "DNA 1": "CAATCTGAATTCCGGTCTCCC", "DNA 2": "TGGTGGCTACGACGGGATT"}, "B29": {"name": "GUACGAU (DNA:RNA)", "RNA": "B10 RNA with C25G, C26U, U27A, A29G, U30A", "DNA 1": "CAATCTGAATTCCGGTCTCCC", "DNA 2": "TGGTGGCTACGACGGGATT"}, "B30": {"name": "UGCCAUA (DNA:RNA)", "RNA": "B10 RNA with C25U, C26G, U27C, U31A", "DNA 1": "CAATCTGAATTCCGGTCTCCC", "DNA 2": "TGGTGGCTACGACGGGATT"}, "B31": {"name": "ACCCCUC (DNA:RNA)", "RNA": "B10 RNA with C25A, U27C, A29C, U31C", "DNA 1": "CAATCTGAATTCCGGTCTCCC", "DNA 2": "TGGTGGCTACGACGGGATT"}},
  "note": "Substitutions are numbered along the chain they refer to; changes in the protein carry UniProt numbers. This is one part of the list.",
  "data": [
    {"molecular_target": "T1, RBFOX1 RRM RbFoxmut (Fox-RRM*) (Homo sapiens, UniProt Q9NWB1 109-208, R118D;E147R;N151S;E152T)", "T1 sequence": "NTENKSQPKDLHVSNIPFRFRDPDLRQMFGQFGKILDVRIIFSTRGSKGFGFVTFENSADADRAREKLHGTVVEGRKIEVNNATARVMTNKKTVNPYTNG", "experiment": "EMSA; HiTS-Eq, 1 nM pool, 10 min; buffer printed only for the single-RNA assays: 10 mM Tris pH 7.5, 150 mM NaCl, 3.4 mM EDTA, 0.001% NP-40, 30 C", "settings": "tags: His6 N-terminal (pET28a); label: 5' 32P", "outline": "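Purified RbFox RRM (wild type or mutant) was equilibrated for 10 min in 50 µL with 1 nM of a 5′-radiolabelled pool of RNA with 7 randomized nucleotides, its flanks annealed to DNA oligonucleotides, across increasing protein concentrations. Free RNA was separated by 8% native PAGE, excised, reverse-transcribed, PCR-barcoded and sequenced on an Illumina HiSeq 2500. Relative association constants came from read-count changes of each variant against the control reaction, normalised to the cognate motif.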", "values": [
      {"binder": "B1", "binding signal": "0.122 KA relative to UGCAUGU"},
      {"binder": "B2", "binding signal": "0.0603 KA relative to UGCAUGU"},
      {"binder": "B3", "binding signal": "0.0873 KA relative to UGCAUGU"},
      {"binder": "B4", "binding signal": "0.0782 KA relative to UGCAUGU"},
      {"binder": "B5", "binding signal": "0.119 KA relative to UGCAUGU"},
      {"binder": "B6", "binding signal": "0.0854 KA relative to UGCAUGU"},
      {"binder": "B7", "binding signal": "0.0791 KA relative to UGCAUGU"},
      {"binder": "B8", "binding signal": "0.454 KA relative to UGCAUGU"},
      {"binder": "B9", "binding signal": "0.0957 KA relative to UGCAUGU"},
      {"binder": "B10", "binding signal": "0.0805 KA relative to UGCAUGU"},
      {"binder": "B11", "binding signal": "0.224 KA relative to UGCAUGU"},
      {"binder": "B12", "binding signal": "0.0889 KA relative to UGCAUGU"},
      {"binder": "B13", "binding signal": "0.218 KA relative to UGCAUGU"},
      {"binder": "B14", "binding signal": "0.0556 KA relative to UGCAUGU"},
      {"binder": "B15", "binding signal": "0.129 KA relative to UGCAUGU"},
      {"binder": "B16", "binding signal": "0.11 KA relative to UGCAUGU"},
      {"binder": "B17", "binding signal": "0.0732 KA relative to UGCAUGU"},
      {"binder": "B18", "binding signal": "0.155 KA relative to UGCAUGU"},
      {"binder": "B19", "binding signal": "0.196 KA relative to UGCAUGU"},
      {"binder": "B20", "binding signal": "0.113 KA relative to UGCAUGU"},
      {"binder": "B21", "binding signal": "0.0758 KA relative to UGCAUGU"},
      {"binder": "B22", "binding signal": "0.0834 KA relative to UGCAUGU"},
      {"binder": "B23", "binding signal": "0.102 KA relative to UGCAUGU"},
      {"binder": "B24", "binding signal": "0.374 KA relative to UGCAUGU"},
      {"binder": "B25", "binding signal": "0.138 KA relative to UGCAUGU"},
      {"binder": "B26", "binding signal": "0.72 KA relative to UGCAUGU"},
      {"binder": "B27", "binding signal": "0.131 KA relative to UGCAUGU"},
      {"binder": "B28", "binding signal": "0.324 KA relative to UGCAUGU"},
      {"binder": "B29", "binding signal": "0.101 KA relative to UGCAUGU"},
      {"binder": "B30", "binding signal": "0.122 KA relative to UGCAUGU"},
      {"binder": "B31", "binding signal": "0.074 KA relative to UGCAUGU"}
    ]}
  ]
}
